B1: LINE1-mini (parent)
chain: GGCAGAGCUCAACACAGCGUGGCAAAGUGGCUGUGGCUAGACUGCC

Read counts are not given, so values of variants with three or more changes are uncertain.

Variants of B1 are the subject of this data set. Put plainly: self-cleavage, relative activity (ratio to wild type); higher = more cleavage; in vitro, sequencing; the parent is a self-cleaving ribozyme.
Turning to GGCACAGCUCAACACAGCGUGGCAAAGUGGCUAAGGCUAGAGUGCC [G5C G33A U34A C42G], the self-cleavage was 0.03.
The same measure for GGCACAGCUCAACACAGCGUGGCAAAGUGGCCGUGGAUGGACUGCC [G5C U32C C37A A39G]: 0.04; for GGCACAGCUCAACACAGCGUGUCAAAGUGGCUGUGGCUAGAUUGCC [G5C G22U C42U]: 0.01.
As to GGCACAGCUCAACACAGCGAGGCAAAGUGGCUGUGGCUAGACUGAC [G5C U20A C45A], the self-cleavage was found to be 0.38.
For the variant GGCACAGCUCAACACAGCGUGGCAAAUUGGCAGUGGCUAGACUGCC [G5C G27U U32A], the self-cleavage amounted to 0.06.
To GGCACAGCUCAACACAGCGAGGCUAAGUGGCUGUGGCUAGACUAGC [G5C U20A A24U G44A C45G] belongs 0.02; to GGCACAGCUCAACACAGCUUGGCAAAGUGGCUGUGGCUAGUCUGCC [G5C G19U A41U], 0.15.
The same measure for GGCACAGCUCAACACAGCGCGGCAAAGUGGCUGUGGCUAGGCUGCC [G5C U20C A41G]: 0.07; for GGCACAGCUCAACACAGCGUGACAAAGUGGCUGGGGCUAGACUGCC [G5C G22A U34G]: 0.06.
The same measure for GGCACAGCUCAACACAGCGUGGCAAAGUGGCUAUAGCUAGACUGCC [G5C G33A G35A]: 0.04; for GGCACAGCUCAACACAGCGUGGCAAAGUGGCUUUGGCUAGACAGCC [G5C G33U U43A]: 0.02.
For GGCACAGCUCAACACAGCGUGGCAAAUUGGCUGUGGCUAGAUUGCC [G5C G27U C42U], the self-cleavage came to 0.02.
With GGCACAGCUCAACACAGCGCGGCACAGUGGCUGUGGCUAGACUGCC [G5C U20C A25C], the self-cleavage worked out at 0.03.
The same measure for GGCACAGCUCAACACAGCGUGGCAAAGUGGCUAUGGCUACACUGCC [G5C G33A G40C]: 0.08; for GGCACAGCGCAACACAGUGUGGCAAACCGGCUGUGGGUAGACUCCC [G5C U9G C18U G27C U28C C37G G44C]: 0.02; for GGCACAGCUCAACACAGCGUGGCAAAGUGGCUCUGGUUAGACUGCC [G5C G33C C37U]: 0.04.
As to GGCACAGCUCAACACAGCGUGGCAAAGUCGCUGUGGCAGGUCUGCC [G5C G29C U38A A39G A41U], the self-cleavage stood at 0.02.
GGCACAGCUCAACACAGCGUGGCAAAGUGGCGGUGGCUAAACUGCC [G5C U32G G40A]: the self-cleavage worked out at 0.02.
In the case of GGCACAGCUCAACACAGCAUGGCAAAGUGGCUGUGGCUAGAACGCC [G5C G19A C42A U43C], the self-cleavage stood at 0.06.
Consider GGCACAGCUCAACACAUCGUGGCAAAGCGGCUGUGGCUAGAGUGCC [G5C G17U U28C C42G], for which the self-cleavage was 0.59.
For GGCACAGCUCAACACAGCGUGGCAAAGUCGCUGUGGCUAGACUUCC [G5C G29C G44U], the self-cleavage was determined as 0.12.
Turning to GGCACAGCUCAACACAGCGUGGCAAAGGGGCUGUGGUUAGACUGCC [G5C U28G C37U], the self-cleavage came out at 0.02.
For GGCACAGCUCAACACAGCGUGUCAAAGUGGCUGUUGCUAGACUGCC [G5C G22U G35U], the self-cleavage is 0.06.
Regarding GGCACAGCUCAACACAGCGUGGCAAAGUGGCUGUGUCUAGGCUGCC [G5C G36U A41G], the self-cleavage turned out to be 0.04.
Regarding GGCACAGCUCAACACAGCGUGUCAAAGUGUCUGUGGCUAGACUGCC [G5C G22U G30U], the self-cleavage stood at 0.63.
The same measure for GGCACAGCUCAACACAGCGUGGCAAAGUGCCUGUGACUAGACUGCC [G5C G30C G36A]: 0.06; for GGCACAGCUCAACACAGCGUGCCAUAGGGGCCGUGGCUAGACUGCC [G5C G22C A25U U28G U32C]: 0.01; for GGCACAGCUCAACACAGCGUGGCAAAGUGGCGGUGGCUAGAAUGCC [G5C U32G C42A]: 0.21.
GGCACAGCUCAACACAUCGUGGCAAAAUGACUGUGGCUAGACUUCC [G5C G17U G27A G30A G44U]: the self-cleavage amounted to 0.03.
On to GGCACAGCUCAACACAGCGUGGCAAAGUGCCUGUGGCUAGUCUUGC [G5C G30C A41U G44U C45G], for which the self-cleavage stood at 0.
On to GGCACAGCUCAACACAGCGUGGCAAAGUGGCUCAGGCUAGACUGCC [G5C G33C U34A], for which the self-cleavage is 0.02.
For the variant GGCACAGCUCAACACAGCGUGGCAAAGUGCCUGUCGCUGGACUGCC [G5C G30C G35C A39G], the self-cleavage was found to be 0.01.
Regarding GGCACAGCCCAACACAGCGUUGCAAAGUGGCUGUGGCUAGACUGCC [G5C U9C G21U], the self-cleavage was found to be 0.03.
GGCACAGCCCAACACAGCGUCGCAAAGUGGCUGUGGCUAGACUGCC [G5C U9C G21C]: the self-cleavage stood at 0.01.
On to GGCACAGCUCAACACAGCGUGGCAAAGUGGCUGUUGCUAGACUGCU [G5C G35U C46U], for which the self-cleavage is 0.02.
As to GGCACAGCACAACACAGCAUGGCAAAGUCGCUGUUGCUAGACUGCC [G5C U9A G19A G29C G35U], the self-cleavage came to 0.04.
Consider GGCACAGCUCAACACAGCGUGGCAAAGGGGCUGCGGCUAGACUGCC [G5C U28G U34C], for which the self-cleavage turned out to be 0.01.
The same measure for GGCACAGCUCAACACAGCGUGGCAAAGUGACUGUGGUUAGACUGCC [G5C G30A C37U]: 0.05; for GGCACAGCGCAACACACCGUCGCACAGUGGCUGUGGCGAGACUGCC [G5C U9G G17C G21C A25C U38G]: 0.01; for GGCACAGCACAACACAGCGUGGCAAAGUGGCUGUGGCUACACUGCC [G5C U9A G40C]: 0.41.
As to GGCACAGCUCAACACAGCGCGGGAAAGUGGCUGUGGCUAGACUGCC [G5C U20C C23G], the self-cleavage is 0.05.
For the variant GGCACAGCUCAACACAGCGUUGCAUAGUGGCUUUGGCUAGAUUGCC [G5C G21U A25U G33U C42U], the self-cleavage amounted to 0.1.
Regarding GGCACAGCUCAACACAGCGUGGCAAAUUAGCUGUGGCUAGACAGCC [G5C G27U G29A U43A], the self-cleavage was found to be 0.02.
Take GGCACAGCUCAACACAGCGUGGCAAAGCGGCUGUGGCUAGAAUGCC [G5C U28C C42A]: the self-cleavage was 0.06.
For the variant GGCACAGCUCAACACAGCGUGGCAAAGUGGCUGUAGCUAGACUGCG [G5C G35A C46G], the self-cleavage came to 0.03.
With GGCACAGCUCAACACAGCCUGGCAAAGUGGAUGUGGCUAGACUGCC [G5C G19C C31A], the self-cleavage stood at 0.09.
GGCACAGCUCAACACAGCGUUGCAAAAUGGCUGUGGCUAGACUGCC [G5C G21U G27A]: the self-cleavage came out at 0.07.
Consider GGCACAGCUCAACACAGCCUCGCAAAGAGGCUGUGCCUAGACUGCC [G5C G19C G21C U28A G36C], for which the self-cleavage amounted to 0.03.
GGCACAGCUCAACACAGCGUGGCAAAGUGGCUAUGGCUGGACUGGC [G5C G33A A39G C45G]: the self-cleavage turned out to be 0.03.
For GGCACAGCUCAACACAGCGUGACAAAAUGGCUGUGGCUAGACUGCC [G5C G22A G27A], the self-cleavage turned out to be 0.06.
The same measure for GGCACAGCUCAACACAGCGAGGCAAAUUGACUGCGGCUAGAACGCC [G5C U20A G27U G30A U34C C42A U43C]: 0.05; for GGCACAGCUCAACACAGCGUGGCAAAGUAGGUGUGGCUAGACUGCC [G5C G29A C31G]: 0.04; for GGCACAGCACAACGCAGCGUGGCAAAAUGGCUGUGGCUAGAUUGCC [G5C U9A A14G G27A C42U]: 0.18.
For the variant GGCACAGCUCAACACAGCGGGGCAAUGUGGCUGUGGCUAGACUGCC [G5C U20G A26U], the self-cleavage came out at 0.04.
With GGCACAGCUCAACACAGCGUCUCAAAGUGGCUGUGGCUAGACUGCC [G5C G21C G22U], the self-cleavage amounted to 0.02.
To GGCACAGCUCAACACAGCGUGGCAAAGUUGCUUUGGCUACACUGCC [G5C G29U G33U G40C] belongs 0.03.
